# Measured values published in PubChem BioAssay (NCI).
# More than one record can exist for a structure, and the calls need not agree.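 Single-dose data. Exposure time 48 hours. Values below 10 considered active.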 Some entries of the source have several records that differ or are many. The other results are left out here. The source may hold further records. This drug was run again and again over the years, at the concentration stated with the values; each value is one run. Additions like (4×) count equal records among those shown.
# How the values were obtained:
# BT-549 breast = assay: NCI-60 one-dose screen, 48 h (100 = growth as untreated, 0 = no growth, -100 = all killed); details: 25 µM
# MDA-MB-435 melanoma = assay: as above; details: 0.25 µM
compound,measurement,setting,value
COc1cccc2c1C(=O)c1c(O)c3c(c(O)c1C2=O)C[C@@](O)(C(=O)CO)C[C@@H]3OC1CC(N)C(O)C(C)O1 (stereo not given in full),growth,BT-549 breast; runs of 1993,"active: -72.7, -57.6, -68.4, -72.2, -71, -84.5, -14.3, -51.7, -81.8, -80.4, -85.7, -86.7, -79.7, -99.3, -63, -55.2, -39.1, -93.5, -80, -72.1, -76.4, -92.9, -68.7, -80.9, -96.9, -90.9, -70.2, -90.7, -62, -59.3, -1.77, -77.1, -48.6, -97.1, -69.3, -67.8%"
same,growth,BT-549 breast; runs of 1994,"active: -86.2, -54.8, -82.7, -77.6, -88.8, -84.4, -73.3, -85.3, -84, -91.1, -50.5, -54.3, -94.7, -96, -21.4, -90.3, -32.6, -57.4, -90.4, -53.9, -80.6, -63.5, -49.2, -35.4% and inactive: 71.9%"
same,growth,BT-549 breast; runs of 1995,"active: -19.5, -76.8, -92.1, -16.3, -99, -58.2, -69.7, -61.2, -83.7, -74.2, -62.5, -44.1 (2×), -69, -73.6, -36.7, -39.6, -24.2, -33.2, -84.2, -47.9, -51.9, -42.5, -44.6, -80.1, -69.2, -25.2, -50.5, -67.2, -85.5, -62.1, -90.5, -63, -67.8, -77.5, -84.9, -78, -61, -83.6%"
same,growth,BT-549 breast; runs of 1996,"active: -59.2, -29.8, -4.29, -27.2, -41.9, -63.3, -30.9, -33.9, -30.8, -61.7, -48.8, -64, -66, -67.4, -94.2, -46.2, -27.1, -37.7, -53.2, -63.8, -51.6, -26.6, -62.3, -46.3 (2×), -23.1, -35, -66.1, -73.6, -71.7, -84.2, -44.1, -39.8, -91.8, -55.9, -79.8, -40.8, -30.2, -81.8, 5.16, -59.5, -33.1, -52, -43.1, -82.2, -36.1, -68.2, -58, -74, -43.5, -49.8% and inactive: 109%"
same,growth,BT-549 breast; runs of 1997,"active: -48.9, -30.6, -32.9, -37.8, -57.9, 0.0854, -51.3, -80, -45, -73, -85.2, -67.8, -68.6, -49.1, -65.9, -73.1, -26.6, -76.7, -73.4, -32.8, -75.7, -59.3, -54.9, -55.7, -42.8, -55.4, -47.2, -74.1, -26.8, -53.4, -64.1, -43.1, -29.9, -58.6, -60.9, -64.8, 1.97, -68.9, -64.5, -80.6, -63.7% and inactive: 14.6%"
same,growth,BT-549 breast; runs of 1998,"active: -58.5, -74.3, -31.2, -75.4, -62.3, -38.7, -29.3, -73.2, -68.5, -56.8, -76.5, -82.7, -18.8, -85.4, -90.3, -76.7, -48.2, -80.3, -58.9, -44.1, -40.5, -32.8, -70.3, -67.4, -45.3%"
same,growth,BT-549 breast; runs of 1999,"active: -74, -92.6, -39.8, -51.8, -76.1, -63.8, -96.1, 6.4, -49.2, -37.8, -80.9, -100, -8.08, -10.2, -29.4%"
same,growth,BT-549 breast; runs of 2000,"active: -100, -98.7, -35.4, -93.1%"
same,growth,MDA-MB-435 melanoma; runs of 2006,"inactive: 63.2%, 62.7%"
same,growth,MDA-MB-435 melanoma; runs of 2007,"inactive: 51.1, 61.1, 64.6, 61.7, 67.2, 65.1, 63.2 (2×), 64.9, 70.6, 68.4, 79.1, 74.5, 67.3, 70.5, 73.6, 82.1, 75.2, 81.9, 84.3, 70.4, 80.3, 83.2, 86.6, 78.3, 78.7, 75.3, 74.6, 77.4, 80.9, 63.5, 66.6, 60, 64.2, 62.3, 82.2, 68.6%"
same,growth,MDA-MB-435 melanoma; runs of 2008,"inactive: 74.5, 53.6, 55.1, 61.4, 76.7 (2×), 73.6, 74, 73.5, 70.7, 67.7, 74.1, 71.8, 62.2 (2×), 68.1, 33.5, 61, 61.7, 48.5, 52.5, 56.9, 49.5, 43, 49.3, 53.5, 49.4, 62.3, 111, 60.6, 48.3, 47.1, 40.6, 60, 40.3, 45.2, 48.6, 51.5, 41, 53.4, 58.7, 66.6, 71, 76.3, 82.9, 61.5, 69, 50.7, 48.9, 57.7, 54, 66, 65.2, 62.9, 59.2%"
same,growth,MDA-MB-435 melanoma; runs of 2009,"inactive: 60.7 (2×), 58.8, 47.3, 59.9, 53 (2×), 65.7 (2×), 61, 65.2 (3×), 59.6, 62.1, 55.1, 57 (2×), 61.8 (2×), 67.5, 66.9, 58.6 (2×), 68, 60.3, 68.3, 58.9 (2×), 50.9, 60.8, 62.3, 61.2, 59.1, 48.2, 65, 80.3, 56.3, 69.4, 64, 64.4 (2×), 61.3 (2×), 75.6, 76, 58.7, 55.7, 65.1 (2×), 52.7, 64.6, 59.5, 56.9, 63.7, 94.4, 73.4, 60.1, 74.1, 57.3, 67.1, 72%"
same,growth,MDA-MB-435 melanoma; runs of 2010,"inactive: 65.4, 74.9, 57.6 (2×), 64.9, 55.3, 73.7, 73.4, 58.4, 62.1, 63.4, 57.9, 71.2, 60, 57.4, 61.4, 77.5, 52.4, 65.7 (2×), 53.3, 65.1, 56.8, 63, 62.5 (2×), 68.7, 66.6, 57, 45.8, 59.6, 49.3, 62.8, 59.8, 61.3, 59.7, 56.3, 59.4, 62.6, 68, 69.7, 61.8, 66.9, 67.2, 60.8 (2×), 62.9, 58.7%"
same,growth,MDA-MB-435 melanoma; runs of 2011,"inactive: 65.1, 60.8, 61.6, 60.7, 67.3, 76.6, 58.3, 67.2, 71.7, 61.9, 59.8 (2×), 61.1 (2×), 59.3, 70.1, 72.8 (2×), 68.1, 68.6, 69.1, 73.8, 68.2, 71.4, 62.9, 69, 53.7, 54.8, 61.3, 55 (2×), 56.9 (2×), 53.4, 53.8, 58.7 (2×), 57.9, 57.3, 58.5, 56.1, 52.1, 57.8, 59.5, 61.5, 49, 55.7, 65.5, 62.1, 71.1, 64.2, 70, 61.8%"
same,growth,MDA-MB-435 melanoma; runs of 2012,"inactive: 62.5 (2×), 51.6, 58.3, 51.3, 72.3, 67.6, 55.2, 53, 54.7, 52, 54.8 (2×), 53.7, 54.2, 49.6, 51.4, 52.2, 50.5, 52.9 (2×), 51.8, 49.2, 58.8, 65.1, 62.8, 61.9, 57 (2×), 66.9, 61.1, 64.6, 56.9 (2×), 56, 59.8, 50.6, 62.7, 60.1, 57.6 (2×), 57.7, 63.4, 59.5, 67.7, 69.7, 66.7, 71.7, 69.6, 66.3, 73, 73.6, 70.8, 70.7, 70.5, 48.2, 60, 58.7, 48.1, 57.5, 54.1, 45.7, 53.3, 61.7%"
